Assay results published in PubChem BioAssay AID485281 (National Center for Advancing Translational Sciences (NCATS), 2010).
About 260 (0.074%) of roughly 350,000 compounds were called active. Inconclusive means that the source gave no clear call. Such entries were picked first, then a sample of the others. Calls follow the shape of the dose curve; as a rule, active = well fitted inhibition curve with a large enough effect; inconclusive = small, poorly fitted or top-dose-only effect; inactive = no such curve, though single readings can be large or run the other way. Potencies of inconclusive entries are doubtful fits and often do not repeat.

molecular target: Ferritin light chain (Equus caballus) (UniProt P02791); assay: qHTS Assay for Identification of Novel General Anesthetics; details: apoferritin/1-aminoanthracene competitive binding, fluorescence; activity change, negative = displacement: at 77.5 µM (top of the series); also: nearly all actives have a fitted effect of over 20% in size
Chain of UniProt P02791 (P02791 whole entry, looked up): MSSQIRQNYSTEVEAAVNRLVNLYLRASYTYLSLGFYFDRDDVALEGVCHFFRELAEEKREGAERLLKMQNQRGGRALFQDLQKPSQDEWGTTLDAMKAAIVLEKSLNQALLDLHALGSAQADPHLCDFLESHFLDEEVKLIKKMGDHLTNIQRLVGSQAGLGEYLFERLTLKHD
Procedure, shortened: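 Concentration-response curves derived by four-parameter Hill fitting of normalized fluorescence, where compounds displaced 1-AMA from 10 uM horse apoferritin following a brief 10 min room-temperature incubation; propofol titration acted as positive control.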
% is scaled to controls: 0 for no effect and ±100 for the full control effect; potency is read from the fitted curve at half-maximal effect; tags tell the direction and shape of the fitted curve.

Potency, inactive:
CCOc1ccc(NC(=O)c2ccc3c(=O)n4c(nc3c2)CCCCC4)cc1

Potency, inconclusive:
O=C(CN1C(=O)C2CCCCC2C1=O)OCC(=O)c1ccc(Cl)s1 (configuration not stated) 28.2 µM [inhibitor, partial curve], C/C(Cc1ccccc1)=N\NC(=O)CNC(=O)c1ccc2c(c1)OCCO2 50.1 µM [inhibitor, single point], Cc1ccc(-n2ncc3c(=O)n(CC(=O)OCc4ccccc4)cnc32)cc1 35.5 µM [inhibitor, partial curve], NC(=O)CC(NC(=O)Cc1cccc2ccccc12)c1ccc(N2CCCCCC2)c([N+](=O)[O-])c1 (configuration not stated) 50.1 µM [inhibitor, partial curve], Cc1ccc(-n2c(C)c([N+](=O)[O-])c3ccc(O)c(CN(C)C)c32)cc1 5.62 µM [inhibitor, full curve], CC(C)(C)C(=O)NNC(=O)CCCOc1ccc(Cl)cc1Cl 14.1 µM [inhibitor, partial curve], Cc1ccc(S(=O)(=O)N(C)CC(=O)O/N=C(\N)c2ccc([N+](=O)[O-])cc2)cc1 31.6 µM [inhibitor, partial curve], CNS(=O)(=O)c1ccc(NCC2COc3ccccc3O2)c([N+](=O)[O-])c1 (configuration not stated) 50.1 µM [inhibitor, single point], CC1Cc2ccccc2N1C(=O)COC(=O)C1=COCCO1 (configuration not stated) 35.5 µM [inhibitor, partial curve], Cc1ccc(CNC(=O)C2CCN(C(=O)N3CC(C)Oc4ccc(Cl)cc43)CC2)cc1 (configuration not stated) 17.8 µM [inhibitor, partial curve], CC(C)c1ccc(CNc2ccc([N+](=O)[O-])cn2)cc1 25.1 µM [inhibitor, partial curve], Cc1ccnc(Sc2ccc([N+](=O)[O-])cc2[N+](=O)[O-])n1 28.2 µM [inhibitor, single point], COc1cc2oc(=O)cc(-c3ccc(-c4ccc(NC(C)=O)cc4)cc3)c2c(OC)c1OC 25.1 µM [inhibitor, partial curve], c1ccc(Nc2ccc3c4c(cccc24)CC3)cc1 39.8 µM [inhibitor, partial curve], Cc1nc2ccccc2c2oc(C(=O)Nc3ccc(C(C)C)cc3)cc12 35.5 µM [inhibitor, single point], NNC(=O)C1COc2cc3ccccc3cc2O1 (configuration not stated) 12.6 µM [inhibitor, partial curve], Cc1ccc(NN2C(=O)C=C(c3ccc(Cl)cc3)C2=O)cc1 44.7 µM [inhibitor, partial curve], COCCOC(=O)C1=C(C)NC(C)=C(C(=O)OC/C=C/c2ccccc2)C1c1cccc([N+](=O)[O-])c1 (configuration not stated) 14.1 µM [inhibitor, partial curve], Cc1cccc(N=Nc2c(N)n[nH]c2N)c1 28.2 µM [inhibitor, single point], CCOc1ccc(NC(=O)N(CC(C)C)CC(C)C)cc1 31.6 µM [inhibitor, partial curve], c1ccc2c(Cn3nnc4ccccc43)cccc2c1 28.2 µM [inhibitor, single point], CCN(CC)S(=O)(=O)c1ccc(/C=C/C(=O)Nc2ccc(F)c(F)c2F)cc1 14.1 µM [inhibitor, partial curve], O=C(CSCc1c(F)cccc1F)Nc1ccccc1 28.2 µM [inhibitor, single point], CCOC(=O)C1=NN(c2ccc([N+](=O)[O-])cc2)CC1C(=O)OC (configuration not stated) 31.6 µM [inhibitor, partial curve], C=C1CCC[C@]2(C)C[C@H]3OC(=O)C(CNC(C)CCCC(C)C)[C@H]3CC12 (some centres not stated) 7.94 µM [inhibitor, full curve, poor fit], COc1ccc2c(C)c(Cc3ccccc3)c(=O)oc2c1OC 35.5 µM [inhibitor, partial curve], O=C(NC(=S)Nc1ccc(-c2ccc(CO)o2)cc1)c1cccs1 15.8 µM [inhibitor, partial curve], O=C(COn1nnc2ccc(Cl)cc21)NC12CC3CC(CC(C3)C1)C2 17.8 µM [inhibitor, partial curve], Cc1cc(NC(=O)C2CC=CCC2C(=O)O)ccc1NC(=O)c1ccccc1 (configuration not stated) 15.8 µM [inhibitor, partial curve], C[C@H](N)c1nnc(SCc2ccc(Cl)cc2Cl)o1 50.1 µM [inhibitor, partial curve, poor fit], O=C(COC(=O)c1n[nH]c2ccccc12)Nc1ccc(Cl)cc1[N+](=O)[O-] 14.1 µM [inhibitor, partial curve], Fc1ccc(-n2cc(CNCCc3ccccn3)c(-c3ccccc3Cl)n2)cc1 22.4 µM [inhibitor, partial curve]

Potency, active:
N#Cc1cc([N+](=O)[O-])ccc1NC(=O)COC(=O)CCC1CCCCC1 31.6 µM, COc1cccc(-c2nc(CS(=O)CC(=O)NCc3ccccc3Cl)c(C)o2)c1 (configuration not stated) 28.2 µM

Activity change, negative = displacement, inactive:
Cc1c(Cl)cccc1NC(=O)CCCCCN1C(=O)CCC1=O 0.306%, CCN(CC)CCOC(=O)c1ccc(N/C=C(/C#N)c2nc(-c3cc4ccccc4oc3=O)cs2)cc1 0.0552%, CNc1ccc(/C=C2\COc3ccccc3C2=O)cc1[N+](=O)[O-] 1.44%, COc1ccccc1/C=C/c1nc(C#N)c(NCc2ccccc2)o1 461%, O=C(C1=C(O)C(=O)N(CCCN2CCOCC2)C1c1ccncc1)c1cc2ccccc2o1 (configuration not stated) -3.47%, O=C(O)Cc1ccc(-n2cccc2)cc1 4.19%, COc1ccc(-c2cc(C(=O)NCCN3CCOCC3)c3ccccc3n2)cc1 36.4%
